Test results: PubChem BioAssay AID624417 (National Center for Advancing Translational Sciences (NCATS), 2012)
Hit rate of the full screen: of about 410,000 compounds, about 6,400 (1.6%) were called active. The inconclusive results got no clear call from the source; some entries with a clear call stand among them for comparison. The call rests on the fitted dose curve; in most records, active means well fitted inhibition curve with a large enough effect; inconclusive means small, poorly fitted or top-dose-only effect; inactive means no such curve, though single readings can be large or run the other way. No potency is given beside an inconclusive call; the fits are too rough.

Target: Glucagon-like peptide 1 receptor (Homo sapiens) (UniProt P43220)
Test: qHTS of GLP-1 Receptor Inverse Agonists (Inhibition Mode); further: nearly all actives have a fitted effect of over 55% in size
Details: HEK293 GLP-1R CRE-luciferase, luminescence, 24 h, GLP-1R form is constitutively active; series mostly up to 38.3 µM
In short: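 Constitutively active GLP-1R drives a cAMP-responsive luciferase in stably transfected HEK293 cells; test compounds are added after overnight (12 h) attachment and left 24 hr, and signal loss in luminescence marks inhibition.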
Potency means the concentration at half of the fitted maximal effect; tags describe the fitted curve by direction and shape.

Sequence of UniProt P43220 (P43220 whole entry, looked up): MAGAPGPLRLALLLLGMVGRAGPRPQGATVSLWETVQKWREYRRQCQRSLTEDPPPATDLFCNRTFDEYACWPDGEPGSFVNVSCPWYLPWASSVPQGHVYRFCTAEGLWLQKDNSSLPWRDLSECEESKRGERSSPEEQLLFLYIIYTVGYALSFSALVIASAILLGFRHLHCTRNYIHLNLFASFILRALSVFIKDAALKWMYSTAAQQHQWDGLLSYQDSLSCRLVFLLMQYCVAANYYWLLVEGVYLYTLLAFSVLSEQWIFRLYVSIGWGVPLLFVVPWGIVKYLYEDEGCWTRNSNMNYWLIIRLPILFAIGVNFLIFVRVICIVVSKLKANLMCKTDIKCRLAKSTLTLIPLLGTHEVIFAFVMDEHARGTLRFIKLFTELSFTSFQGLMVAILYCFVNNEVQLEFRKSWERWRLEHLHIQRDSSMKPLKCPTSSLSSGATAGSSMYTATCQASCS

Question: How did the Potency turn out when COc1ccc(CCNC(=O)CSc2nc3c(sc(=S)n3-c3ccccc3)c(=O)[nH]2)cc1OC was run?
Answer: inactive

Question: O=C(Nc1ccc2c(c1)OCO2)c1ccc(Cl)s1 was tested. Which Potency did it give?
Answer: inconclusive [inhibitor, single point]

Question: COc1ccccc1N(C(=O)c1snc(C(N)=O)c1N)C(C(=O)NC1CCCCC1)c1cccc(OC)c1OC (stereo not given) was tested. Which Potency did it give?
Answer: inconclusive [inhibitor, partial curve, poor fit]

Question: For C=CCCN(Cc1ccccc1)S(=O)(=O)c1cc(Br)ccc1Br, which Potency is on record?
Answer: inconclusive [inhibitor, single point]

Question: CCN(CC)c1ccc(C(=O)N2CCN(Cc3ccccc3)CC2)cc1 was tested. Which Potency did it give?
Answer: inconclusive [inhibitor, partial curve, poor fit]

Question: With Cc1ccc2c(c1)sc1nc(-c3cc4ccccc4oc3=O)cn12 as the compound, how does the Potency read?
Answer: inactive

Question: With CCc1nc(SCc2ccc(Cl)cc2)n[nH]1 as the compound, how does the Potency read?
Answer: inactive

Question: COc1ccccc1N1CCN(S(=O)(=O)c2ccc(Cl)cc2)CC1 was tested. Which Potency did it give?
Answer: inconclusive [inhibitor, partial curve, poor fit]

Question: For Cc1cc(C)c(S(=O)(=O)N2C[C@H]3CON(C)[C@H]3C[C@H]2c2ccc(N3CCCCC3)cc2)c(C)c1, which Potency is on record?
Answer: inconclusive [inhibitor, partial curve, poor fit]

Question: For Cc1nn(Cc2noc(C(=O)NC3CCC(C)CC3)n2)c(C)c1Br (stereo not given), which Potency is on record?
Answer: inconclusive [inhibitor, single point]

Question: How did the Potency turn out when O=C(NCCCN1CCOCC1)c1cc2c(s1)-c1ccccc1OC2 was run?
Answer: inconclusive [inhibitor, single point]

Question: For Cc1ccc(S(=O)(=O)N2C[C@H]3C(=O)C[C@@H](c4ccccc4)N(S(C)(=O)=O)[C@H]3C[C@H]2c2ccccc2)cc1, which Potency is on record?
Answer: inconclusive [inhibitor, single point]

Question: Which Potency does the source give for COCC(C)n1c(C)cc(C(=O)COC(=O)c2c(C)nn(-c3ccccc3)c2C)c1C (stereo not given) here?
Answer: inconclusive [inhibitor, partial curve]

Question: Which Potency does the source give for Cc1c(Cl)cccc1NC(=S)NCC1COc2ccccc2O1 (stereo not given) here?
Answer: inconclusive [inhibitor, single point]

Question: CC(C)Cc1cc(C(=O)Nc2sc3c(c2C#N)CCCC3)no1 was tested. Which Potency did it give?
Answer: inconclusive [inhibitor, partial curve]

Question: With Cc1ccc(NC(=O)CCCCCN2C(=O)[C@@H]3Cc4ccccc4CN3C2=O)c(Cl)c1 as the compound, how does the Potency read?
Answer: inconclusive [inhibitor, partial curve, poor fit]

Question: For CCc1ncn(CCc2ccccc2OC)c1C(C)C, which Potency is on record?
Answer: inactive

Question: How did the Potency turn out when Cc1ccc(Cn2nc(C)c(NC(=O)C3(C)CC3(Br)Br)c2C)cc1 (stereo not given) was run?
Answer: inconclusive [inhibitor, single point]

Question: How did the Potency turn out when CN(C)N=Nc1nc2c(c(=O)n(C)c(=O)n2C)n1CC1CO1 (stereo not given) was run?
Answer: inconclusive [inhibitor, partial curve, poor fit]

Question: Which Potency does the source give for O=c1c(Cl)c(Cl)cnn1Cc1ccccc1Cl here?
Answer: inconclusive [inhibitor, single point]

Question: Cn1cccc1/C=N\NC(=O)C1COc2ccc(C(C)(C)C)cc2O1 (stereo not given) was tested. Which Potency did it give?
Answer: active: 10 µM

Question: For OCCC1CN(Cc2ccc(F)cc2Cl)CCN1CCc1ccccc1 (stereo not given), which Potency is on record?
Answer: inconclusive [inhibitor, partial curve, poor fit]

Question: For CSc1ccc(CN2CCC2(C)C(=O)NCc2cccc(C(F)(F)F)c2)cc1 (stereo not given), which Potency is on record?
Answer: inconclusive [inhibitor, single point]

Question: Which Potency does the source give for CCc1cccc(OCC(=O)Nc2cc(S(=O)(=O)N3CCOCC3)ccc2N2CCCC2)c1 here?
Answer: inconclusive [inhibitor, partial curve, poor fit]

Question: Which Potency does the source give for CS(=O)(=O)c1ccc2nc(NC(=O)Nc3cccc(Cl)c3)sc2c1 here?
Answer: inactive

Question: O=C1NC2(CCCCC2)C(=O)N1CCS(=O)(=O)Oc1ccccc1 was tested. Which Potency did it give?
Answer: inactive

Question: Which Potency does the source give for NNC(=O)COc1ccc(-c2n[nH]c(C(F)(F)F)c2-c2ccc(Br)cc2)c(O)c1 here?
Answer: inconclusive [inhibitor, partial curve, poor fit]

Question: C/C(Cn1nc([N+](=O)[O-])cc1C)=N\NC(=O)COc1ccc(Cl)cc1Cl was tested. Which Potency did it give?
Answer: inconclusive [inhibitor, single point]

Question: How did the Potency turn out when S=c1[nH]nc(COc2ccccc2)n1/N=C/c1cccs1 was run?
Answer: inactive

Question: Which Potency does the source give for Cc1ccc(NC(=O)CN2CCCN(Cc3ccccc3Cl)S2(=O)=O)c(C)c1 here?
Answer: inconclusive [inhibitor, partial curve, poor fit]

Question: For COC(=O)c1ccccc1NC(=O)CSc1nc(-c2ccccc2)cc(C(F)(F)F)n1, which Potency is on record?
Answer: inactive

Question: With CC(Oc1ccc(Cl)cc1)c1ccnn1S(=O)(=O)c1ccc(Cl)cc1 (stereo not given) as the compound, how does the Potency read?
Answer: inconclusive [inhibitor, partial curve, poor fit]

Question: With Cc1ccc(SCc2ccc(C(=O)Nc3nccs3)o2)cc1 as the compound, how does the Potency read?
Answer: inconclusive [inhibitor, single point]

Question: For CCOC(=O)c1c(C)[nH]c(C)c1S(=O)(=O)N1CCC(C(=O)Nc2ccc(F)cc2F)CC1, which Potency is on record?
Answer: inactive

Question: Which Potency does the source give for COc1ccc(NC(=O)CN(C)C(=O)/C=C/c2ccc(S(=O)(=O)N3CCCCCC3)cc2)cc1 here?
Answer: inconclusive [inhibitor, single point]

Question: How did the Potency turn out when C/C(=N\Nc1nccnc1Cl)c1ccc(Br)cc1 was run?
Answer: inconclusive [inhibitor, partial curve, poor fit]

Question: Which Potency does the source give for Cc1cccc(-c2noc(CNC(=O)Nc3ccc(F)cc3)n2)c1 here?
Answer: inconclusive [inhibitor, single point]

Question: CCc1ccc(C(O)c2ncc(-c3cccc(F)c3)[nH]2)cc1 (stereo not given) was tested. Which Potency did it give?
Answer: inconclusive [inhibitor, partial curve, poor fit]

Question: CC(=O)c1ccc(NC(=O)c2ccc3c(c2)N(Cc2cccc(Cl)c2)C(=O)c2ccccc2S3(=O)=O)cc1 was tested. Which Potency did it give?
Answer: inconclusive [inhibitor, partial curve, poor fit]

Question: For CCOC(=O)C1(Cc2ccc(Cl)cc2)CCN(C(C)Cc2ccc(O)c(OC)c2)CC1 (stereo not given), which Potency is on record?
Answer: inconclusive [inhibitor, partial curve, poor fit]

Question: How did the Potency turn out when COC(=O)c1sccc1NC(=S)NCc1ccc(Cl)cc1 was run?
Answer: inconclusive [inhibitor, single point]

Question: With O=C(c1ccc(Cl)c(Cl)c1)N1CCC(=O)N(C(COCc2ccccc2)Cc2ccccc2)CC1 (stereo not given) as the compound, how does the Potency read?
Answer: inconclusive [inhibitor, partial curve, poor fit]

Question: COc1c(C)cc(C(=O)C2CCCN(Cc3ccc(Oc4ncccn4)cc3)C2)cc1C (stereo not given) was tested. Which Potency did it give?
Answer: inconclusive [inhibitor, partial curve, poor fit]

Question: CC(C)(C)N(Cc1ccccc1)C(=O)COC(=O)c1cccc([N+](=O)[O-])c1 was tested. Which Potency did it give?
Answer: inconclusive [inhibitor, single point]

Question: With CCOC(=O)c1cnc2cc(C(F)(F)F)ccc2c1N1CCN(c2ccc(F)cc2)CC1 as the compound, how does the Potency read?
Answer: inactive

Question: Which Potency does the source give for COC(=O)CNC(c1ccccc1)c1cc(Br)ccc1NC(=O)OCc1ccccc1 (stereo not given) here?
Answer: active: 3.98 µM

Question: For CCn1cc(C2N3CC4(CC)CN2CC(CC)(C3)C4=O)c2ccccc21 (stereo not given), which Potency is on record?
Answer: inconclusive [inhibitor, single point]

Question: How did the Potency turn out when O=C(c1ccco1)N1CCN(CC(O)COc2ccc(Br)cc2)CC1 (stereo not given) was run?
Answer: inconclusive [inhibitor, partial curve, poor fit]

Question: Which Potency does the source give for COc1cccc(CN(C)C(=O)c2ccc(OCC(=O)Nc3cccc(C(F)(F)F)c3)c(OC)c2)c1 here?
Answer: inconclusive [inhibitor, single point]

Question: How did the Potency turn out when CCCc1c(-c2ccccc2)ncn1Cc1ccccc1OC was run?
Answer: inconclusive [inhibitor, single point]

Question: Cc1cccc(CSCCNC(=O)c2ccc(N(C)S(=O)(=O)c3ccccc3)cc2)c1 was tested. Which Potency did it give?
Answer: inconclusive [inhibitor, single point]

Question: Which Potency does the source give for COc1cccc(/C=C/c2nc(C#N)c(N3CCCCC3)o2)c1 here?
Answer: inconclusive [inhibitor, single point]

Question: With Cc1ccc(S(=O)(=O)N(C)C)cc1NC(=O)C(C)N(C)Cc1sccc1C (stereo not given) as the compound, how does the Potency read?
Answer: inconclusive [inhibitor, partial curve, poor fit]

Question: For CCOc1ccccc1CNc1ncnc2c1nc1n2CCCC1, which Potency is on record?
Answer: inconclusive [inhibitor, partial curve, poor fit]

Question: Which Potency does the source give for COc1ccccc1N1CCN(C(c2ccc(C)cc2)c2nnnn2C(C)C)CC1 (stereo not given) here?
Answer: inconclusive [inhibitor, partial curve, poor fit]

Question: Which Potency does the source give for COc1cc(/C=N/Nc2nc3c(c(=O)n(C)c(=O)n3C)n2Cc2ccccc2)ccc1OC(=O)c1ccco1 here?
Answer: inactive

Question: Which Potency does the source give for CC(CCC(C)C(C)(C)C)[C@@H]1CC[C@H]2C3C[C@H](OS(O)(=S)=S)[C@H]4C[C@H](OS(O)(=S)=S)[C@@H](OS(O)(=S)=S)C[C@]4(C)[C@H]3CC[C@]12C (stereo not given in full) (tested in a mixture with another compound) here?
Answer: inconclusive [inhibitor, single point]

Question: Which Potency does the source give for Cc1cc(C)c(CN2CCC(n3nccc3NC(=O)CCOc3ccccc3)CC2)cc1C here?
Answer: inconclusive [inhibitor, partial curve, poor fit]

Question: How did the Potency turn out when COc1ccc(S(=O)(=O)NCCc2nnc3ccc(SCC(=O)Nc4ccc(C(F)(F)F)cc4)nn23)cc1 was run?
Answer: inactive

Question: With c1ccc(-c2nccc(-c3ccco3)n2)nc1 as the compound, how does the Potency read?
Answer: inconclusive [inhibitor, partial curve, poor fit]
